For 73 sequences, binding signal (log2 normalized intensity) results are on record in article PMC10726135.

The list shows a part of the results. At the low end of the ranking the order means little. Measured with an extract: partners may take part in the binding.

For the experiment, the target named is T1, HNF4alpha8 (COS-7 nuclear extract) (UniProt P41235-5).
T1 sequence: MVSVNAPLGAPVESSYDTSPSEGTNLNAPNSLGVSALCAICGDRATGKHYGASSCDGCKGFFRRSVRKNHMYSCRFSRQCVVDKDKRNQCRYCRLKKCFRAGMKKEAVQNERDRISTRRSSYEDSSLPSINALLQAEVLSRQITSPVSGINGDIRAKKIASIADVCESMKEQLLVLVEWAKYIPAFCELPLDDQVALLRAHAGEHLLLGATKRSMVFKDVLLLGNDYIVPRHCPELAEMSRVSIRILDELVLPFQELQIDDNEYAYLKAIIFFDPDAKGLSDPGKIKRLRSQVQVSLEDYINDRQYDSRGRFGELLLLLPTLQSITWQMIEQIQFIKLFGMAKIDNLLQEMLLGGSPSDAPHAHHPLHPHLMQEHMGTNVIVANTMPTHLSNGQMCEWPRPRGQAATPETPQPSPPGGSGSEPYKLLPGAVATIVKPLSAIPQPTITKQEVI
As to the kind of experiment: protein-binding microarray. As to conditions: COS-7 nuclear extract on double-stranded Agilent 4x180k PBM; binding buffer, salt, pH and temperature not given; high values mean tight binding; double strand, one strand shown; sequences stand for … in …GCCTAGGGAGATTAGAGTATCGGTCGA
TGAGAACTGGAGCAAAGGTCACTCTTGCTA: the binding signal (log2 normalized intensity) is 5.31.
Consider TCCACTGATAAAGTTCTTTTGTGTGTTTAC, for which the binding signal (log2 normalized intensity) was 1.8.
Then AAAGGGTGAAATAGGAGGATTTTATTCAGG, with -1.28; and CTTGGTATGTCTGATGAATAGAAAGAGGTC, with 1.82; and CTTGTCTGATAAGATTCAGAACCCATTAAT, with 0.282.
For the sequence CCCATCCATTTCCCATCCCCAGAGCCCCCT, the binding signal (log2 normalized intensity) stood at 5.31.
As to AAGACACAGAGAAAAAGAAGGTTGGGCGTT, the binding signal (log2 normalized intensity) is -1.24.
In the case of TGTCTTCCTCTCTGAAGGATTTAAATGGAA it was 1.02; in that of CATCTAAGACTTTATTTGAAGAAATGGTGG, 0.881.
Then GAATTGGAAGGCAAAGTTCAACCCTGAATG, with 2.56; and AGGTGAATCAACGATAAGGGATGATAAGGC, with -1.38; and ATAAACTTCCAGCCATTTTGTGAGCTCTGA, with -1.13.
Then ATGGCATTTAGGGTATTTCCTAAACCAACT, with -1.41; and CTCTGAGATGGACTCCAGTGATCTTATCGC, with 2.49; and GAAGCTGTGTAACCCTGGAGCCATAAATCC, with -1.31.
Turning to AGATGAGGAATCTGTTGAGAACTGGAGCAA, the binding signal (log2 normalized intensity) was -1.43.
Turning to ACTCTCTCATTCTGATATGCACTGTCAGTT, the binding signal (log2 normalized intensity) is 0.722.
As for GAGGCAGTGGCCTGAGGCAGCCAGTGAGTG, the binding signal (log2 normalized intensity) is -1.4.
Then AAGCAACACTTTCTGACCTTTAAGCACCCA, with 4.22; and CCCGAAGGGTAGGAGAAGCTGGAAGGACAG, with -1.28; and GAAGCAGGCAGGCAGCTTCCAGGTGACAGT, with -1.25.
Then TCTTCTTCTGGGGACTTCGGTCTTTTTTCT, with 2.67; and GCTTGTTGGTTCAAGAGAAATGTTATCTCA, with 1.37; and TGTGTTTCCACAAACACAGATCAGATATGA, with 0.289.
Then TTTTTCTTGGGTGTATGGGTATAGGCGCGC, with 1.09; and GTGGAATTTGTGCTTATTTCCCATCAAGGA, with 0.292; and TTGAACCTTGGGTCTGTAATCTCACAACTC, with 1.98.
As to ACACAGAGGAGCGACCCAGGCAGCCCCTTT, the binding signal (log2 normalized intensity) was -0.898.
Regarding TGCAAATGGATGAATTTTATCACTCCATCA, the binding signal (log2 normalized intensity) is -1.25.
Then ATAGCAAACACGATTGGATGGAAGGTCCTT, with 0.748; and AGAAACAGAAAGTCCGGGGGCCAGTTCACT, with -1.35; and TCTGTGAAGGTCAGGAGCCCCACAGAGCAA, with 2.3.
Then AGAGCACAGGATCCAGAGGTCACCCAGAGC, with 2.19; and GATTTTTAGAGCTGGGGCACAATGCTGCAA, with -1.43; and CATTAATTAACCTTTGAGCTGGGTGGCCCT, with 3.85.
TTATCTTGATGGTTAAAGTCCAATCTTCTG: the binding signal (log2 normalized intensity) turned out to be 4.82.
Then CTATCACTGTCTAGCTGTGTAACCCTGGAC, with 1.97; and TCACCATATCCCTGAGAGGCCAGTTTGACC, with 3.28.
Then AGCTGGAGGAGACCTTTGGATATCATATCA, with 2.69.
For TGGACTTTGATCCTGATGACTGCAGAGCTT, the binding signal (log2 normalized intensity) came to 6.16.
Then GTAACCACCTCTCTGGGTGGTTCGAGACCC, with 0.212.
Take GCGCAGGCGCAGTCCTCTCTCGCGAGAGCC: the binding signal (log2 normalized intensity) was -1.24.
In the case of GTATTTTTTGAATGACAGTGTCAGGACCTT it was 1.65.
Then GGCTGAGCATCACCAGTGCAGCTGACCTAC, with 2.24; and TGGAATGTCTTTGGGTGGAGGGGAGGTTAT, with 1.18; and ACATTCTTCCTCACATCTCTTCCTTGCTTT, with 0.292.
With TCTTCCTTCATCTGGAGACAAATGCTTTTG, the binding signal (log2 normalized intensity) worked out at 0.978.
With ATCCAGCACAGTGCTGGTACATAGCAGGGG, the binding signal (log2 normalized intensity) was -0.951.
Then AATGTTTGTAGGGACTTTGACCCCTAAAAC, with 9.59; and TCACAACCTCCCTTTGAAGGAGCCACTGGT, with -0.869.
In the case of AGTGTGGGGTGACTGACTTAACCCTTGCCT it was 2.27; in that of CAGTCCATTTCAGTGAACTTTTCAATGCTC, 1.29.
Then TGAACAGCTCTTCTTGCCAGCTGGCCTCCT, with -0.103; and ATGTGCCCTTTGTACCTGGGGCAAACATCA, with 5.3; and CATCCCTCTCCCGCCTCTTGGCCTCCCCCT, with 5.62.
On to AAAGGTCAAGAGAATTACAAACAGCCCTGA, for which the binding signal (log2 normalized intensity) was -1.39.
In the case of CCTGCACCTGGAGCCCTTAGGGTCAATGGG it was 3.4; in that of GTTTCTTTCCCTGGGGTCAATAGTTGTGTA, 3.69; in that of GACAAGAGTGACCTCTGGTCATTCAATGTT, 3.81.
In the case of GTGACTTCCTTCCAAAGGTCACAGTAGGGA it was 4.99; in that of GTTATTTGCTAAAACTGGGCTGGGTAAGCC, -0.00424; in that of TGTTTGCTTTTCTTATTTACCGAAATGTGG, 2.1.
In the case of AGGTGACCCTTGAGCTAAGTCCCAAGGGAT it was 2.23; in that of TGGTACTTTGAGCCAGTAAGTCTAGGGGTG, 1.23; in that of TACATTTTGCTCTGTTGTGTCAAAGGTCAC, 7.
With GAGAGAAAAAATCAGAGAGCAAAGGTGATC, the binding signal (log2 normalized intensity) is 2.63.
As for TGAAGAAACCAACCCTGCCAAAGGTTAAAA, the binding signal (log2 normalized intensity) amounted to 2.48.
Then TCCCTCATTAGTAACTCCAGAGATAAGATA, with -1.4.
Regarding ATGGAAGTTTGCCCTGGTTGAGGAATTTGG, the binding signal (log2 normalized intensity) came to 1.54.
Consider TATTACTAAGTGAGAAAAGAACCATGAGAG, for which the binding signal (log2 normalized intensity) was -1.29.
In the case of TTAAAGACCAAAGATCACAGTGAAGGTGAA it was 1.56.
In the case of GATTACATGGGAGATAGAGCAGTGGAAGAC it was -1.23.
In the case of TTGATTCCATGCTGATAATGGAATTGACAT it was 1.07.
